Some of the results follow.
Tests used:
Assay in all cases: glycan array binding signal (z-score within array); higher = stronger binding
Conditions in all cases: glycan notation: IUPAC condensed, linker removed
Fuc(a1-2)Gal = biological target: Fuc(a1-2)Gal
In short: (§1)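 From the Consortium for Functional Glycomics database, 3228 arrays were curated, keeping only those whose protein sequence was available. Binding is given as a within-array Z-score averaged across arrays sharing a protein sequence and across linkers. Negative Z-scores can be read as non-binding.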

Fuc(a1-2)Gal(b1-3)GalNAc = biological target: Fuc(a1-2)Gal(b1-3)GalNAc
In short: as §1

[1] = biological target: Fuc(a1-2)Gal(b1-3)GalNAc(a1-3)[Fuc(a1-2)]Gal(b1-4)Glc
In short: as §1

[2] = biological target: Fuc(a1-2)Gal(b1-3)GalNAc(a1-3)[Fuc(a1-2)]Gal(b1-4)GlcNAc
In short: as §1

[3] = biological target: Fuc(a1-2)Gal(b1-3)GalNAc(b1-3)Gal
In short: as §1

[4] = biological target: Fuc(a1-2)Gal(b1-3)GalNAc(b1-3)Gal(a1-4)Gal(b1-4)Glc
In short: as §1

[5] = biological target: Fuc(a1-2)Gal(b1-3)GalNAc(b1-4)[Neu5Ac(a2-3)]Gal(b1-4)Glc
In short: as §1

Fuc(a1-2)Gal(b1-3)GlcNAc = biological target: Fuc(a1-2)Gal(b1-3)GlcNAc
In short: as §1

[6] = biological target: Fuc(a1-2)Gal(b1-3)GlcNAc(b1-2)Man(a1-3)[Fuc(a1-2)Gal(b1-3)GlcNAc(b1-2)Man(a1-6)]Man(b1-4)GlcNAc(b1-4)GlcNAc
In short: as §1

[7] = biological target: Fuc(a1-2)Gal(b1-3)GlcNAc(b1-2)Man(a1-3)[Fuc(a1-2)Gal(b1-3)GlcNAc(b1-2)Man(a1-6)]Man(b1-4)GlcNAc(b1-4)[Fuc(a1-6)]GlcNAc
In short: as §1

[8] = biological target: Fuc(a1-2)Gal(b1-3)GlcNAc(b1-3)Gal(b1-4)Glc
In short: as §1

[9] = biological target: Fuc(a1-2)Gal(b1-3)GlcNAc(b1-3)GalNAc
In short: as §1

[10] = biological target: Fuc(a1-2)Gal(b1-3)GlcNAc(b1-3)[Fuc(a1-2)Gal(b1-3)GlcNAc(b1-6)]GalNAc
In short: as §1

[11] = biological target: Fuc(a1-2)Gal(b1-3)GlcNAc(b1-3)[Gal(b1-4)GlcNAc(b1-6)]Gal(b1-4)Glc
In short: as §1

[12] = biological target: Fuc(a1-2)Gal(b1-3)GlcNAc(b1-3)[Neu5Ac(a2-6)Gal(b1-4)GlcNAc(b1-6)]Gal(b1-4)Glc
In short: as §1

[13] = biological target: Fuc(a1-2)Gal(b1-3)GlcNAc6S
In short: as §1

[14] = biological target: Fuc(a1-2)Gal(b1-3)[Fuc(a1-4)]GlcNAc
In short: as §1

[15] = biological target: Fuc(a1-2)Gal(b1-3)[Fuc(a1-4)]GlcNAc(b1-2)Man(a1-3)[Fuc(a1-2)Gal(b1-3)[Fuc(a1-4)]GlcNAc(b1-2)Man(a1-3)]Man(b1-4)GlcNAc(b1-4)GlcNAc
In short: as §1

[16] = biological target: Fuc(a1-2)Gal(b1-3)[Fuc(a1-4)]GlcNAc(b1-2)Man(a1-3)[Fuc(a1-2)Gal(b1-3)[Fuc(a1-4)]GlcNAc(b1-2)Man(a1-6)]Man(b1-4)GlcNAc(b1-4)[Fuc(a1-6)]GlcNAc(b1-4)[Fuc(a1-6)]GlcNAc
In short: as §1

[17] = biological target: Fuc(a1-2)Gal(b1-3)[Fuc(a1-4)]GlcNAc(b1-3)[Fuc(a1-3)[Gal(b1-4)]GlcNAc(b1-6)]Gal(b1-4)Glc
In short: as §1

[18] = biological target: Fuc(a1-2)Gal(b1-3)[Fuc(a1-4)]GlcNAc(b1-3)[Gal(b1-4)GlcNAc(b1-6)]Gal(b1-4)Glc
In short: as §1

Fuc(a1-2)Gal(b1-4)Glc = biological target: Fuc(a1-2)Gal(b1-4)Glc
In short: as §1

B1: PX14343H-pdi-506-26-506 (Parabacteroides distasonis) (protein)
chain: QPTGTMTTDSKLTSKESALALTNSAYLKNTVFNKMTPGWGCNTILLLEYMTGKATSENSQSNYKDFQDLLVSDRSLYIEDWWQDCYAGIANCNLALQKLGEFENLDASLVNGYMAEVKFMRALYYFYLVRIFGDVPKITTVQSELGELQVSRAPVKEIYDEIIIPDLLEAEQSDLAFSDHTGRVSMGAVKALLADVYLTYAGYPLQGGKSYYAESAKRSLEVIKSNEYTLFTDYESLRLPSQNNKGEFIYQVQFSLNKRHNESVRIFLPSRSGISAYDLEYGSLIPTKEFVESFEKGDKRTEEKQYFFTNYKGHPSKFSPGAAELEFMDLNGYYIYKFFDQVAVDNTAKSDLNWSVYRYTDVLLMYAEAQVNADGTPNQQSIDIVNQIRGRAGLAPFKQTNASAFLEEVWDQRYFDLCYENKMWFDMLRTRKIRDDKSGEYVDFIGYKTNWGKVYTETQLLFPIPLSERQANPNLTQNQGY
Fuc(a1-2)Gal
  glycan array binding signal (z-score): -0.393
Fuc(a1-2)Gal(b1-3)GalNAc
  glycan array binding signal (z-score): -0.509
[1]
  glycan array binding signal (z-score): -0.41
[2]
  glycan array binding signal (z-score): -0.451
[3]
  glycan array binding signal (z-score): -0.373
[4]
  glycan array binding signal (z-score): -0.355
[5]
  glycan array binding signal (z-score): -0.216
Fuc(a1-2)Gal(b1-3)GlcNAc
  glycan array binding signal (z-score): -0.171
[6]
  glycan array binding signal (z-score): 1.18
[7]
  glycan array binding signal (z-score): -0.417
[8]
  glycan array binding signal (z-score): -0.38
[9]
  glycan array binding signal (z-score): -0.507
[10]
  glycan array binding signal (z-score): -0.337
[11]
  glycan array binding signal (z-score): -0.26
[12]
  glycan array binding signal (z-score): -0.402
[13]
  glycan array binding signal (z-score): -0.364
[14]
  glycan array binding signal (z-score): -0.374
[15]
  glycan array binding signal (z-score): -0.174
[16]
  glycan array binding signal (z-score): -0.358
[17]
  glycan array binding signal (z-score): -0.346
[18]
  glycan array binding signal (z-score): -0.231
Fuc(a1-2)Gal(b1-4)Glc
  glycan array binding signal (z-score): -0.4
